Data on 153 variants can be found in a collection of fitness landscapes (doi:10.1016/j.celrep.2020.107928).

In all, about 81,000 sequences were measured (“one-hybrid fitness for binding NBS DNA”: median about -0.1, highest 2% from about 0.36 on). The list shows a part of the results. Bounds are passed on as bounds.

The chains are these.
B1: Caulobacter ParB omega fusion; a variant is named by its letters at X, in order, B8GW30 (parent)
chain: MESVVVGEPGMSEGRRGLGRGLSALLGEVDAAPAQAPGEQLGGSREAPIEILQRNPDQPRRTFREEDLEDLSNSIREKGVLQPILVRPSPDTAGEYQIVAGERAWRAAQRAGLKTVPIMVRELDDLAVLEIGIIENVQRADLNVLEEALSYKVLMEKFERTQENIAQTIGKSXSHVANXMRLLXLPDEVQSYLVSGELTAXHARAIAAAADPVALAKQIIEGGLSVRETEALARKAPNLSAGKSKGGRPPRVKDTDTQALESDLSSVLGLDVSIDHRGSTGTLTITYATLEQLDDLCNRLTRGI

Variants of B1 are the subject of this assay. As to the kind of experiment: one-hybrid fitness for binding NBS DNA (the Noc-binding site; scaled: cognate 1, non-cognate 0); higher = stronger binding. Conditions: with NBS DNA site. The essentials:
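Caulobacter ParB libraries with four specificity codons randomised were screened by bacterial one-hybrid selection in the E. coli USO strain, using a HIS3 reporter whose site lies 19 bp from the promoter. Selection ran for 48 hours at 37°C on M9 lacking histidine, with 0.1 mM IPTG and 5 mM 3-AT. Plasmids were Illumina-sequenced before and after selection, three replicate libraries were pooled, and variants with under 10 reads were dropped. Fitness is the log change in each variant's read ratio to wild type, rescaled against the cognate and non-cognate sites.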
SRHS: the “one-hybrid fitness for binding NBS DNA” value was at most 0.2.

With PHAC, the “one-hybrid fitness for binding NBS DNA” value is at most 0.2. With KDGL the figure was at most 0.2; with DCSQ, at most 0.2. In the case of AFQT, the “one-hybrid fitness for binding NBS DNA” value was at most 0.2.

For RWYC, the “one-hybrid fitness for binding NBS DNA” value was at most 0.2. In the case of HVRN, the “one-hybrid fitness for binding NBS DNA” value is at most 0.2. Take HFTT: the “one-hybrid fitness for binding NBS DNA” value was at most 0.2. With AGAT the figure was at most 0.2. In the case of SQKP it was at most 0.2; in that of RDDG, at most 0.2; in that of NIPN, at most 0.2. In the case of RPTG, the “one-hybrid fitness for binding NBS DNA” value is at most 0.2. DLFG: the “one-hybrid fitness for binding NBS DNA” value was at most 0.2.

In the case of LCKT, the “one-hybrid fitness for binding NBS DNA” value is at most 0.2. Consider SHSF, for which the “one-hybrid fitness for binding NBS DNA” value is at most 0.2. Consider RSYS, for which the “one-hybrid fitness for binding NBS DNA” value came to 0.409. As for SKTQ, the “one-hybrid fitness for binding NBS DNA” value is at most 0.2. With RACN the figure was at most 0.2. In the case of PFIS it was at most 0.2; in that of NNVL, at most 0.2.

Turning to NVLC, the “one-hybrid fitness for binding NBS DNA” value was at most 0.2. In the case of AFCR it was at most 0.2; in that of DTFT, at most 0.2; in that of CTNS, at most 0.2. Take ECNV: the “one-hybrid fitness for binding NBS DNA” value is at most 0.2. With DTPG the figure was at most 0.2; with QTYS, 0.507. In the case of PQKG it was at most 0.2. As for REVE, the “one-hybrid fitness for binding NBS DNA” value was at most 0.2.

With CALS, the “one-hybrid fitness for binding NBS DNA” value was at most 0.2. Consider IIMK, for which the “one-hybrid fitness for binding NBS DNA” value is at most 0.2. As for AIIL, the “one-hybrid fitness for binding NBS DNA” value was at most 0.2. Turning to MSRC, the “one-hybrid fitness for binding NBS DNA” value is at most 0.2. With YQQY, the “one-hybrid fitness for binding NBS DNA” value was at most 0.2. In the case of ESPW it was at most 0.2. In the case of LCRT it was at most 0.2; in that of GADW, at most 0.2. In the case of GQWK it was at most 0.2; in that of VLMY, at most 0.2; in that of RRPN, at most 0.2. Take IRGC: the “one-hybrid fitness for binding NBS DNA” value is at most 0.2. With LDFW, the “one-hybrid fitness for binding NBS DNA” value is at most 0.2. With APHG the figure was at most 0.2; with DFNM, at most 0.2; with QEKV, at most 0.2.

With ASTN, the “one-hybrid fitness for binding NBS DNA” value was at most 0.2. With QSFH, the “one-hybrid fitness for binding NBS DNA” value was at most 0.2. In the case of TSGV it was at most 0.2; in that of IRNY, at most 0.2; in that of KRNK, at most 0.2. With KHWT the figure was at most 0.2. With RMVW the figure was at most 0.2; with SHFS, at most 0.2; with VQPM, at most 0.2. Regarding SKVS, the “one-hybrid fitness for binding NBS DNA” value is at most 0.2.

Consider LLDG, for which the “one-hybrid fitness for binding NBS DNA” value is at most 0.2. GRGR: the “one-hybrid fitness for binding NBS DNA” value is at most 0.2.

TLIV: the “one-hybrid fitness for binding NBS DNA” value is at most 0.2. With YPTG the figure was at most 0.2; with RYVA, at most 0.2. Regarding LTNH, the “one-hybrid fitness for binding NBS DNA” value is at most 0.2. In the case of SLMT it was at most 0.2; in that of ETGL, at most 0.2. With DTTR the figure was 0.304; with HWLK, at most 0.2; with HHTM, at most 0.2. With PQLY the figure was at most 0.2; with LHMT, at most 0.2; with FTST, at most 0.2. Regarding AHPD, the “one-hybrid fitness for binding NBS DNA” value is at most 0.2. In the case of CSVT it was at most 0.2. With KINT the figure was at most 0.2; with STMW, at most 0.2; with ELDF, at most 0.2. In the case of CSPM it was at most 0.2. Regarding VSGK, the “one-hybrid fitness for binding NBS DNA” value is at most 0.2. Take LLPA: the “one-hybrid fitness for binding NBS DNA” value was at most 0.2.

For IADS, the “one-hybrid fitness for binding NBS DNA” value is at most 0.2. Regarding RRIP, the “one-hybrid fitness for binding NBS DNA” value was at most 0.2. In the case of EANV it was at most 0.2; in that of SGLA, at most 0.2. With IVPG the figure was at most 0.2; with TIWR, at most 0.2.

HTYY: the “one-hybrid fitness for binding NBS DNA” value is at most 0.2. With VMYV, the “one-hybrid fitness for binding NBS DNA” value was at most 0.2.

On to QAVC, for which the “one-hybrid fitness for binding NBS DNA” value was at most 0.2. In the case of GETM it was at most 0.2.

For the variant SECA, the “one-hybrid fitness for binding NBS DNA” value was at most 0.2.

Turning to TDPE, the “one-hybrid fitness for binding NBS DNA” value was at most 0.2. In the case of PREF it was at most 0.2. In the case of FATR it was at most 0.2; in that of KLNC, at most 0.2.

For the variant CMGS, the “one-hybrid fitness for binding NBS DNA” value is at most 0.2. For the variant HLVD, the “one-hybrid fitness for binding NBS DNA” value was at most 0.2. With SQMA the figure was at most 0.2; with RGPC, at most 0.2; with KKET, at most 0.2. NPAD: the “one-hybrid fitness for binding NBS DNA” value is at most 0.2. With PCPG the figure was at most 0.2; with ICNG, at most 0.2. Consider KRWF, for which the “one-hybrid fitness for binding NBS DNA” value is at most 0.2. Regarding MSQQ, the “one-hybrid fitness for binding NBS DNA” value is at most 0.2. In the case of VSLQ it was at most 0.2; in that of SSIC, at most 0.2. Turning to KQSF, the “one-hybrid fitness for binding NBS DNA” value was at most 0.2. For the variant CSQE, the “one-hybrid fitness for binding NBS DNA” value was at most 0.2. Consider LNQH, for which the “one-hybrid fitness for binding NBS DNA” value was at most 0.2. In the case of VGKC it was at most 0.2. For EYDR, the “one-hybrid fitness for binding NBS DNA” value is at most 0.2. Turning to SLTP, the “one-hybrid fitness for binding NBS DNA” value was at most 0.2. SMPC: the “one-hybrid fitness for binding NBS DNA” value was at most 0.2.

Consider QYRT, for which the “one-hybrid fitness for binding NBS DNA” value was 0.733. For NDSS, the “one-hybrid fitness for binding NBS DNA” value was at most 0.2. For THTF, the “one-hybrid fitness for binding NBS DNA” value is at most 0.2.

Turning to RRFD, the “one-hybrid fitness for binding NBS DNA” value was at most 0.2. TMLR: the “one-hybrid fitness for binding NBS DNA” value was at most 0.2. With HDSV the figure was at most 0.2; with GCWT, at most 0.2. With PILP the figure was at most 0.2; with REED, at most 0.2. In the case of CCDL it was at most 0.2.

As to IRMG, the “one-hybrid fitness for binding NBS DNA” value was at most 0.2. As for ARMS, the “one-hybrid fitness for binding NBS DNA” value was at most 0.2.

For FTAS, the “one-hybrid fitness for binding NBS DNA” value is at most 0.2.

For SFVY, the “one-hybrid fitness for binding NBS DNA” value is at most 0.2. With HEVG the figure was at most 0.2; with HMHG, at most 0.2. For KCIS, the “one-hybrid fitness for binding NBS DNA” value is at most 0.2. HHCC: the “one-hybrid fitness for binding NBS DNA” value was at most 0.2.

Turning to RWTY, the “one-hybrid fitness for binding NBS DNA” value was at most 0.2. In the case of DHNE it was at most 0.2; in that of QPIC, at most 0.2; in that of GLTA, at most 0.2. With QGCC the figure was at most 0.2; with AVYC, at most 0.2. In the case of TWPR it was at most 0.2. With CYTV, the “one-hybrid fitness for binding NBS DNA” value is at most 0.2.

In the case of HSCT, the “one-hybrid fitness for binding NBS DNA” value is at most 0.2. RVMH: the “one-hybrid fitness for binding NBS DNA” value is at most 0.2. Turning to QRIY, the “one-hybrid fitness for binding NBS DNA” value is 0.271. With NITM the figure was at most 0.2.

Consider KPKK, for which the “one-hybrid fitness for binding NBS DNA” value is at most 0.2. With KCMS the figure was at most 0.2; with YNAK, at most 0.2; with RVCT, 0.433. In the case of REVN it was at most 0.2; in that of AAIL, at most 0.2; in that of DCAT, at most 0.2. In the case of HTIC it was at most 0.2; in that of VPFT, at most 0.2; in that of CKKL, at most 0.2. For MMIR, the “one-hybrid fitness for binding NBS DNA” value was at most 0.2.
